Results published in PubChem BioAssay AID270 (DTP/NCI, 2004).
Several values for one entry are separate records, joined by “and”; a condition that tells them apart may be missing. Equal entries are not always repeated. The source gives many values for each of these; only a part stands here. Inconclusive results are not listed.

Test system: BDF1 mice, s.c. Lewis lung carcinoma, T/C %
Assay: NCI In Vivo Anticancer Drug Screen. Data for tumor model Lewis Lung Carcinoma (subcutaneous) in B6D2F1 (BDF1) mice
Procedure: The antitumor activity of compounds was measured in mice bearing transplantable tumors. Survival or tumor size were measured and the results are expressed as the measurement made in the treated group (T) divided by the measurement made in the vehicle treated control group (C). The tumor model used in this assay is Lewis Lung Carcinoma (subcutaneous) in B6D2F1 (BDF1) mice

## O=P1(N(CCCl)CCCl)NCCCO1 (configuration not stated)
endpoint: mean survival time, dose: 200.0 mg/kg/injection, schedule: Q08DX002 (ip), vehicle: saline, higher = longer survival
  T/C: 250 % of control
endpoint: median survival time, dose: 67.0 mg/kg/injection, schedule: Q01DX005 (ip), vehicle: saline, higher = longer survival
  T/C: 439 % of control
endpoint: median survival time, dose: 100.0 mg/kg/injection, schedule: Q01DX005 (ip), vehicle: saline, higher = longer survival
  T/C: 323 % of control and 439 % of control
endpoint: median survival time, dose: 100.0 mg/kg/injection, schedule: Q04DX003 (sc), vehicle: saline, higher = longer survival
  T/C: 245 % of control and 309 % of control
endpoint: median survival time, dose: 150.0 mg/kg/injection, schedule: Q04DX003 (ip), vehicle: saline, higher = longer survival
  T/C: 254 % of control
endpoint: median survival time, dose: 200.0 mg/kg/injection, schedule: Q01DX001 (ip), vehicle: water, higher = longer survival
  T/C: 363 % of control
endpoint: median survival time, dose: 200.0 mg/kg/injection, schedule: Q08DX002 (ip), vehicle: saline, higher = longer survival
  T/C: 250 % of control
endpoint: median survival time, dose: 225.0 mg/kg/injection, schedule: Q07DX004 (ip), vehicle: saline, higher = longer survival
  T/C: 246 % of control
endpoint: median survival time, dose: 300.0 mg/kg/injection, schedule: Q01DX001 (ip), vehicle: water, higher = longer survival
  T/C: 363 % of control
endpoint: median survival time, dose: 400.0 mg/kg/injection, schedule: Q01DX001 (ip), vehicle: saline, higher = longer survival
  T/C: 243 % of control
endpoint: median survival time, dose: 556.0 mg/kg/injection, schedule: Q01DX001 (ip), vehicle: saline, higher = longer survival
  T/C: 245 % of control

## CC1CCC(NC(=O)N(CCCl)N=O)CC1 (configuration not stated)
endpoint: median survival time, dose: 8.0 mg/kg/injection, schedule: Q01DX001 (ip), vehicle: saline + alcohol, higher = longer survival
  T/C: 171 % of control
endpoint: median survival time, dose: 10.0 mg/kg/injection, schedule: Q04DX003 (ip), vehicle: other, higher = longer survival
  T/C: 197 % of control
endpoint: median survival time, dose: 10.0 mg/kg/injection, schedule: Q07DX002 (ip), vehicle: saline + alcohol, higher = longer survival
  T/C: 179 % of control
endpoint: median survival time, dose: 15.0 mg/kg/injection, schedule: Q01DX005 (ip), vehicle: saline with Tween-80, higher = longer survival
  T/C: 218 % of control and 439 % of control
endpoint: median survival time, dose: 15.0 mg/kg/injection, schedule: Q04DX004 (ip), vehicle: saline with Tween-80, higher = longer survival
  T/C: 179 % of control and 197 % of control and 303 % of control
endpoint: median survival time, dose: 16.0 mg/kg/injection, schedule: Q01DX001 (ip), vehicle: saline + alcohol, higher = longer survival
  T/C: 171 % of control
endpoint: median survival time, dose: 16.0 mg/kg/injection, schedule: Q01DX002 (ip), vehicle: gum acacia, higher = longer survival
  T/C: 221 % of control
endpoint: median survival time, dose: 16.0 mg/kg/injection, schedule: Q02DX002 (ip), vehicle: gum acacia, higher = longer survival
  T/C: 195 % of control
endpoint: median survival time, dose: 16.0 mg/kg/injection, schedule: Q03DX002 (ip), vehicle: gum acacia, higher = longer survival
  T/C: 192 % of control
endpoint: median survival time, dose: 16.0 mg/kg/injection, schedule: Q04DX002 (ip), vehicle: gum acacia, higher = longer survival
  T/C: 252 % of control
endpoint: median survival time, dose: 16.0 mg/kg/injection, schedule: Q07DX002 (ip), vehicle: saline with Tween-80, higher = longer survival
  T/C: 170 % of control
endpoint: median survival time, dose: 20.0 mg/kg/injection, schedule: Q01DX001 (ip), vehicle: saline with Tween-80, higher = longer survival
  T/C: 211 % of control
endpoint: median survival time, dose: 20.0 mg/kg/injection, schedule: Q07DX002 (ip), vehicle: saline + alcohol, higher = longer survival
  T/C: 197 % of control
endpoint: median survival time, dose: 24.0 mg/kg/injection, schedule: Q01DX002 (ip), vehicle: gum acacia, higher = longer survival
  T/C: 178 % of control
endpoint: median survival time, dose: 24.0 mg/kg/injection, schedule: Q02DX002 (ip), vehicle: gum acacia, higher = longer survival
  T/C: 391 % of control
endpoint: median survival time, dose: 24.0 mg/kg/injection, schedule: Q03DX002 (ip), vehicle: gum acacia, higher = longer survival
  T/C: 391 % of control
endpoint: median survival time, dose: 24.0 mg/kg/injection, schedule: Q04DX002 (ip), vehicle: gum acacia, higher = longer survival
  T/C: 356 % of control
endpoint: median survival time, dose: 24.0 mg/kg/injection, schedule: Q05DX002 (ip), vehicle: gum acacia, higher = longer survival
  T/C: 391 % of control
endpoint: median survival time, dose: 24.0 mg/kg/injection, schedule: Q06DX002 (ip), vehicle: gum acacia, higher = longer survival
  T/C: 391 % of control and 448 % of control
endpoint: median survival time, dose: 24.0 mg/kg/injection, schedule: Q07DX002 (ip), vehicle: saline with Tween-80, higher = longer survival
  T/C: 205 % of control
endpoint: median survival time, dose: 24.0 mg/kg/injection, schedule: Q10DX002 (ip), vehicle: gum acacia, higher = longer survival
  T/C: 173 % of control
endpoint: median survival time, dose: 25.0 mg/kg/injection, schedule: Q04DX004 (ip), vehicle: saline with Tween-80, higher = longer survival
  T/C: 180 % of control and 336 % of control
endpoint: median survival time, dose: 28.0 mg/kg/injection, schedule: Q01DX001 (ip), vehicle: gum acacia, higher = longer survival
  T/C: 179 % of control
endpoint: median survival time, dose: 30.0 mg/kg/injection, schedule: Q07DX002 (ip), vehicle: saline + alcohol, higher = longer survival
  T/C: 195 % of control
endpoint: median survival time, dose: 32.0 mg/kg/injection, schedule: Q01DX001 (ip), vehicle: saline + alcohol, higher = longer survival
  T/C: 211 % of control
endpoint: median survival time, dose: 40.0 mg/kg/injection, schedule: Q01DX001 (ip), vehicle: saline with Tween-80, higher = longer survival
  T/C: 178 % of control and 211 % of control
endpoint: median survival time, dose: 54.0 mg/kg/injection, schedule: Q01DX001 (ip), vehicle: saline with Tween-80, higher = longer survival
  T/C: 204 % of control
endpoint: median survival time, dose: 71.0 mg/kg/injection, schedule: Q01DX001 (ip), vehicle: saline with Tween-80, higher = longer survival
  T/C: 123 % of control
endpoint: median survival time, dose: 107.0 mg/kg/injection, schedule: Q01DX001 (ip), vehicle: saline with Tween-80, higher = longer survival
  T/C: 185 % of control
endpoint: median tumor weight (est.), dose: 36.0 mg/kg/injection, schedule: Q01DX001 (ip), vehicle: saline with Tween-80, higher = larger tumour
  T/C: 96 % of control
endpoint: median tumor weight (est.), dose: 50.0 mg/kg/injection, schedule: Q01DX001 (ip), vehicle: saline with Tween-80, higher = larger tumour
  T/C: 59 % of control
endpoint: median tumor weight (est.), dose: 54.0 mg/kg/injection, schedule: Q01DX001 (ip), vehicle: saline with Tween-80, higher = larger tumour
  T/C: 106 % of control
endpoint: median tumor weight (est.), dose: 75.0 mg/kg/injection, schedule: Q01DX001 (ip), vehicle: saline with Tween-80, higher = larger tumour
  T/C: 55 % of control
endpoint: median tumor weight (est.), dose: 81.0 mg/kg/injection, schedule: Q01DX001 (ip), vehicle: saline with Tween-80, higher = larger tumour
  T/C: 104 % of control
endpoint: median tumor weight (est.), dose: 120.0 mg/kg/injection, schedule: Q01DX001 (ip), vehicle: saline with Tween-80, higher = larger tumour
  T/C: 85 % of control
endpoint: median tumor weight (est.), dose: 150.0 mg/kg/injection, schedule: Q01DX001 (ip), vehicle: saline with Tween-80, higher = larger tumour
  T/C: 48 % of control
